The text below walks through data of the supplement of paper PMC10037445.

Structures are written as SMILES. ± gives the standard deviation of the averaged measurements. Over roughly 2,900 compounds, “NF-kB SEAP reporter activity, fold change vs agonist alone” has its median near 0.99; the highest 2% begin near 2.6. This is one part of the list.

Assay [1] concerns RAW-Dual. In words: NF-kB SEAP reporter activity, fold change vs agonist alone; cytotoxicity flag (confluency mask): cytotoxic (confluency <70% of control); higher = enhanced NF-kB activity. The gist of the method: (§1)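 RAW-Dual macrophages (50,000 cells/well in DMEM, 384-well plates) received 50 nL of library stock by pin tool, then a PRR agonist 1 h later, and were kept at 37 °C, 5% CO2. After 20 hours, supernatant was read for IRF by QuantiLuc luminescence and for NF-κB by QuantiBlue absorbance at 620 nm. Reporter activity is fold change over agonist-alone wells. Cytotoxic wells had IncuCyte confluency below 70% of agonist controls in both mask sets.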

Assay [2] relates to RAW-Dual. In words: NF-kB SEAP reporter activity, fold change vs agonist alone; higher = enhanced NF-kB activity. The settings on record: library stock concentration (final ~1000-fold dilution): 10 mM. An outline of the steps:
as §1

For assay [3], the system named is RAW-Dual. In words: NF-kB SEAP reporter activity, fold change vs agonist alone; cytotoxicity flag (confluency mask): not cytotoxic; higher = enhanced NF-kB activity. The gist of the method:
as §1

[4] abbreviates: agonist: ODN 1826 (TLR9) 0.5 ug/mL.
Setting [5] is: agonist: Pam2CSK4 (TLR2/6) 0.1 ug/mL.
Where [6] appears, read: agonist: Pam3CSK4 (TLR2/1) 0.1 ug/mL.
[7] abbreviates: cytotoxicity flag (confluency mask): not cytotoxic, agonist: Imiquimod (TLR7) […].
Where [8] appears, read: cytotoxicity flag (confluency mask): not cytotoxic, agonist: MPLA (TLR4) […].

For `Cc1cnc(Nc2ccc(OCCN3CCCC3)cc2)nc1Nc1cccc(S(=O)(=O)NC(C)(C)C)c1` (library stock concentration (final ~1000-fold dilution): 10 mM), the “NF-kB SEAP reporter activity” value with RAW-Dual [1] (agonist: LPS (TLR4) 0.1 ug/mL) was determined as 4.34; with RAW-Dual [1] (setting [4]), 1.22; in the assay with RAW-Dual [1] (setting [5]), 2.05; with RAW-Dual [1] (setting [6]) it was 3.55.
For `Cc1cnc(Nc2ccc(OCCN3CCCC3)cc2)nc1Nc1cccc(S(=O)(=O)NC(C)(C)C)c1`, the “NF-kB SEAP reporter activity” value in the assay with RAW-Dual [2] (cytotoxicity flag (confluency mask): cytotoxic (confluency <70% of control), agonist: Imiquimod (TLR7) […]) came to 3.13; with RAW-Dual [2] (cytotoxicity flag (confluency mask): cytotoxic (confluency <70% of control), agonist: MPLA (TLR4) […]) it was 2.73.
Regarding `CC(O)CO.CCOc1ccc(Cc2cc(C3OC(CO)C(O)C(O)C3O)ccc2Cl)cc1.O` (stereo not given) (library stock concentration (final ~1000-fold dilution): 10 mM), the “NF-kB SEAP reporter activity” value worked out at 1.46 with RAW-Dual [3] (agonist: LPS (TLR4) 0.1 ug/mL), 1.16 with RAW-Dual [3] (setting [4]), 0.996 in the assay on RAW-Dual [3] (setting [5]) and 1.31 with RAW-Dual [3] (setting [6]).
With `CC(O)CO.CCOc1ccc(Cc2cc(C3OC(CO)C(O)C(O)C3O)ccc2Cl)cc1.O` (stereo not given), the “NF-kB SEAP reporter activity” value with RAW-Dual [2] (setting [7]) was 1.11; in the assay with RAW-Dual [2] (setting [8]) it was 1.08.
For the compound `C=C1CCC2C(C)(CO)C(O)CCC2(C)C1C/C=C1/C(=O)OCC1O` (stereo not given) (library stock concentration (final ~1000-fold dilution): 10 mM), the “NF-kB SEAP reporter activity” value with RAW-Dual [3] (agonist: LPS (TLR4) 0.1 ug/mL) came out at 0.565 ± 0.2; with RAW-Dual [3] (setting [4]), 0.418 ± 0.039; in the assay with RAW-Dual [3] (setting [5]), 0.96 ± 0.18; with RAW-Dual [3] (setting [6]) it was 0.65 ± 0.11.
Turning to `C=C1CCC2C(C)(CO)C(O)CCC2(C)C1C/C=C1/C(=O)OCC1O` (stereo not given), the figures for the “NF-kB SEAP reporter activity” value in the assay on RAW-Dual [2] (setting [7]) and with RAW-Dual [2] (setting [8]) were 0.933 ± 0.078 and 0.792 ± 0.1, respectively.
In the case of `CC1=C(C)C(=O)C(C(CCCCCC(=O)O)c2ccccc2)=C(C)C1=O` (stereo not given) (library stock concentration (final ~1000-fold dilution): 10 mM), the “NF-kB SEAP reporter activity” value in the assay with RAW-Dual [3] (agonist: LPS (TLR4) 0.1 ug/mL) came out at 1.13; with RAW-Dual [3] (setting [4]), 1.02; in the assay on RAW-Dual [3] (setting [5]) it was 0.973; in the assay with RAW-Dual [3] (setting [6]), 1.1.
Regarding `CC1=C(C)C(=O)C(C(CCCCCC(=O)O)c2ccccc2)=C(C)C1=O` (stereo not given), the “NF-kB SEAP reporter activity” value was found to be 0.954 in the assay with RAW-Dual [2] (setting [7]) and 0.925 in the assay on RAW-Dual [2] (setting [8]).
On to `CCC1/C=C(\C)CC(C)CC(OC)C2OC(O)(C(=O)C(=O)N3CCCCC3C(=O)OC(/C(C)=C/C3CCC(Cl)C(OC)C3)C(C)C(O)CC1=O)C(C)CC2OC` (stereo not given), for which, in the assay with RAW-Dual [2] (setting [8]), the “NF-kB SEAP reporter activity” value was determined as 1.3.
For the compound `CCC1/C=C(\C)CC(C)CC(OC)C2OC(O)(C(=O)C(=O)N3CCCCC3C(=O)OC(/C(C)=C/C3CCC(Cl)C(OC)C3)C(C)C(O)CC1=O)C(C)CC2OC` (stereo not given) (library stock concentration (final ~1000-fold dilution): 10 mM), the “NF-kB SEAP reporter activity” value in the assay with RAW-Dual [3] (agonist: LPS (TLR4) 0.1 ug/mL) amounted to 1.83; in the assay with RAW-Dual [3] (setting [4]), 0.465; with RAW-Dual [3] (setting [5]), 0.366; in the assay with RAW-Dual [3] (setting [6]), 0.368.
On to `CC(C)Oc1ccc(-c2cnc3c(-c4ccnc5ccccc45)cnn3c2)cc1` (library stock concentration (final ~1000-fold dilution): 10 mM), for which the “NF-kB SEAP reporter activity” value in the assay with RAW-Dual [3] (agonist: LPS (TLR4) 0.1 ug/mL) amounted to 2.2; in the assay on RAW-Dual [3] (setting [4]), 0.989; in the assay on RAW-Dual [3] (setting [5]), 0.975; in the assay on RAW-Dual [3] (setting [6]), 0.875.
For the compound `CC(C)Oc1ccc(-c2cnc3c(-c4ccnc5ccccc45)cnn3c2)cc1`, the “NF-kB SEAP reporter activity” value in the assay with RAW-Dual [2] (setting [7]) is 1.01; in the assay on RAW-Dual [2] (setting [8]) it was 1.08.
